Test results reported in paper PMC5895051.
Results are given in words; binding and its absence hold for the method and conditions named. In cells and extracts the contact can be indirect. Where a sequence is shown, tags or fusion partners need not be part of it.

Biological target: T1, ZMYND10-p.Gln366* mutant protein (human) (UniProt O75800)
T1 sequence: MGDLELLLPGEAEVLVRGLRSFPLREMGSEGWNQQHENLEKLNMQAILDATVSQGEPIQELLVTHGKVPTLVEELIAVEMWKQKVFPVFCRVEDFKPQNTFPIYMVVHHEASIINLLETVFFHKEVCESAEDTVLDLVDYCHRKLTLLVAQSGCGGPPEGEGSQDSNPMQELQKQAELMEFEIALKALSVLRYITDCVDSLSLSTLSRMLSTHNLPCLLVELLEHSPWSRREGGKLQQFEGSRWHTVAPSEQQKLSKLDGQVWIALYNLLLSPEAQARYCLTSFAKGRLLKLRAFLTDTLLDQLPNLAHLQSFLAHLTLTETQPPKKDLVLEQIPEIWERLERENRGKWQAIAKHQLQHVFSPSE
Experiment: co-IP; constructs cotransfected into HEK 293T cells; immunoprecipitated with anti-FLAG M2 or anti-c-Myc affinity gels, immunoblot

B1: Myc-DNAI1 (dynein axonemal intermediate chain 1) (protein, UniProt Q9UI46 1-699)
chain: MIPASAKAPHKQPHKQSISIGRGTRKRDEDSGTEVGEGTDEWAQSKATVRPPDQLELTDAELKEEFTRILTANNPHAPQNIVRYSFKEGTYKPIGFVNQLAVHYTQVGNLIPKDSDEGRRQHYRDELVAGSQESVKVISETGNLEEDEEPKELETEPGSQTDVPAAGAAEKVTEEELMTPKQPKERKLTNQFNFSERASQTYNNPVRDRECQTEPPPRTNFSATANQWEIYDAYVEELEKQEKTKEKEKAKTPVAKKSGKMAMRKLTSMESQTDDLIKLSQAAKIMERMVNQNTYDDIAQDFKYYDDAADEYRDQVGTLLPLWKFQNDKAKRLSVTALCWNPKYRDLFAVGYGSYDFMKQSRGMLLLYSLKNPSFPEYMFSSNSGVMCLDIHVDHPYLVAVGHYDGNVAIYNLKKPHSQPSFCSSAKSGKHSDPVWQVKWQKDDMDQNLNFFSVSSDGRIVSWTLVKRKLVHIDVIKLKVEGSTTEVPEGLQLHPVGCGTAFDFHKEIDYMFLVGTEEGKIYKCSKSYSSQFLDTYDAHNMSVDTVSWNPYHTKVFMSCSSDWTVKIWDHTIKTPMFIYDLNSAVGDVAWAPYSSTVFAAVTTDGKAHIFDLAINKYEAICNQPVAAKKNRLTHVQFNLIHPIIIVGDDRGHIISLKLSPNLRKMPKEKKGQEVQKGPAVEIAKLDKLLNLVREVKIKT
binding: no binding
